The campaign covered roughly 420,000 compounds. About 50,000 (12%) were called active. This list was built around the results that the source calls inconclusive (neither active nor inactive); the mix of calls is not that of the screen. Calls follow the shape of the dose curve; as a rule, active = well fitted inhibition curve with a large enough effect; inconclusive = small, poorly fitted or top-dose-only effect; inactive = flat fitted curve, though single readings scatter. Potencies of inconclusive entries are left out as doubtful fits.
experiment: qHTS for Inhibitors of human tyrosyl-DNA phosphodiesterase 1 (TDP1): qHTS in cells in presence of CPT; settings: chicken DT40 Tdp1-/-;hTDP1 cells + 20 nM CPT, ATP luminescence, 48 h; series mostly up to 46.2 µM; also: nearly all actives have a fitted effect of over 55% in size
How it was run: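 Cell growth measured by CellTiter-Glo luminescence after a minimum 48 h, 37 C compound exposure with 20 nM CPT in Tdp1-knockout DT40 cells stably expressing hTDP1, seeded 400/well; qHTS titration format.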
Potency is read from the fitted curve at half-maximal effect; tags tell the direction and shape of the fitted curve.

SMILES | Potency
CC(C)c1cc(-c2cc(C(=O)Nc3ccccc3)on2)nc(NC2CCCC2)n1 | active: 25.9 µM
CCc1ccc(-c2ccc3nnc(SCC(=O)NCC4CCCO4)n3n2)cc1 (centres undefined) | inconclusive [inhibitor, single point]
O=C(NC1CCCN(C2Cc3ccccc3C2)C1)c1ccc(F)cc1Cl (centres undefined) | inactive
CNC(=O)N(C1=NCC(C)(C)S1)c1ccc(F)c(Cl)c1 | inconclusive [inhibitor, single point]
O=S(=O)(c1ccccc1)c1cnc(-c2ccccc2)nc1N1CCCCC1 | inconclusive [inhibitor, single point]
N/C(=N\OC(=O)c1cc(-c2ccccc2)nc2ccccc12)c1cccnc1 | inconclusive [inhibitor, single point]
C[C@@H]1CN([C@@H](C)CO)C(=O)CCCn2cc(nn2)CO[C@H]1CN(C)C(=O)CCCN(C)C | inactive
CCC(C(=O)N1CCC(N2CCCCC2)CC1)n1nc(C)c2sc3ccccc3c2c1=O (centres undefined) | inactive
OCC1CCCN(C(=S)Nc2ccc(Nc3ccccc3)cc2)C1 (centres undefined) | inactive
CC(=O)Nc1ccc(S(=O)(=O)N2CCCN(c3nc(C)cc(C)c3C#N)CC2)cc1 | inactive
COc1ccc(-c2nnc3c4ccccc4c(C)nn23)cc1 | inconclusive [inhibitor, single point]
CCC(=O)N1CCc2cc(S(=O)(=O)Nc3ccc4c(c3)OCCO4)ccc21 | active: 9.2 µM
N#Cc1c(NC(=O)CSc2ncn[nH]2)sc2c1CCCC2 | inconclusive [inhibitor, partial curve]
CCOc1ccc(NC(=O)c2cc(=O)c3ccc(C)c(C)c3o2)cc1 | inconclusive [inhibitor, single point]
COC(=O)CNC(=O)c1nn(-c2cccc(OC)c2)c(=O)c2ccccc12 | inactive
Cc1cc(-c2ccc(C(C)C)c(S(=O)(=O)NCCN3CCC(C)CC3)c2)on1 | inconclusive [inhibitor, single point]
CN(C)C(=O)c1ccc2c(c1[N+](=O)[O-])C(=O)c1ccccc1C2=O | active: 2.91 µM
COc1ccc(CN2C[C@H]3CON(C)[C@H]3C[C@H]2c2ccc(-c3ccccc3)cc2)cc1 | inconclusive [inhibitor, single point]
Cc1ccc(NC(=O)COC(=O)CCc2c[nH]c3ccccc23)c(C)c1 | inconclusive [inhibitor, single point]
CCOC(=O)N1CCN(c2ccc(S(=O)(=O)N3CCC(C)CC3)cc2[N+](=O)[O-])CC1 | active: 20.6 µM
Cc1ccc(-n2ncc3c(NNC(=O)c4ccco4)ncnc32)cc1Cl | inconclusive [inhibitor, single point]
COc1ccccc1CC(=O)Nc1ccc(-c2noc(COc3cccc(C)c3C)n2)cc1 | active: 18.4 µM

SMILES | Potency
OC(c1ccccc1)(c1nc(/C=C/c2ccc(C(F)(F)F)cc2)cs1)C(F)(F)F (centres undefined) | inconclusive [inhibitor, single point]
CC(CCCN1CCCC1)Nc1ccnc2cc(Cl)ccc12 (centres undefined) | inconclusive [inhibitor, single point]
OC(c1cccnc1)c1ccc2c(c1)CN(Cc1ccc(-c3ccccc3Cl)o1)CCO2 (centres undefined) | inconclusive [inhibitor, single point]
Cn1c(/C=N/n2cnnc2)nc2ccccc21 | inactive
Cc1ccc(NC(=O)c2nc[nH]c2C(=O)N[C@@H](C)C(=O)OC(C)(C)C)cc1 | inconclusive [inhibitor, single point]
O=C(C[C@H]1C/C=C/CC[C@@H](Cc2ccc(F)cc2)C(=O)OC[C@H](c2ccccc2)NC1=O)NCCO | inactive
NS(=O)(=O)c1ccc(CCNC(c2ccccc2)c2ccccc2)cc1 | inconclusive [inhibitor, partial curve]
COc1cccc(CNCc2cccc(Br)c2)c1OC | inconclusive [inhibitor, single point]
O=C(/C=C/[C@H]1O[C@@H](n2cnc3c(NC(=O)c4ccccc4)ncnc32)[C@H](O)[C@@H]1O)N[C@@H](CO)Cc1c[nH]c2ccccc12 | inactive
CN(CC(=O)Nc1ccc(Cl)c(Cl)c1)CC(=O)Nc1ccc2c(c1)OCO2 | inconclusive [inhibitor, single point]
FC(F)(F)Oc1ccccc1C(c1nnnn1C1CCCC1)N1CCN(C/C=C/c2ccccc2)CC1 (centres undefined) | inconclusive [inhibitor, single point]
CN(C)C(CNS(=O)(=O)c1cc([N+](=O)[O-])ccc1Cl)c1ccco1 (centres undefined) | inconclusive [inhibitor, single point]
Cc1ccc(-c2nc3cccc(C)n3c2Nc2ccc(F)cc2)o1 | inconclusive [inhibitor, single point]
O=c1cc(O)c2sc3nc(C(F)(F)F)c4c(c3c2[nH]1)CCCCC4 | inactive
O=C1CSC2(C(=O)N(Cc3ccccc3)c3ccccc32)N1c1ccc(Cl)cc1 (centres undefined) | active: 16.4 µM
CCOc1ccc(NS(=O)(=O)c2ccc(C(=O)NCC(c3ccco3)N3CCCCC3)cc2)cc1 (centres undefined) | inconclusive [inhibitor, single point]
COc1ccc(NS(=O)(=O)c2ccc(N3CCOCC3)c(NC(=O)c3ccc(F)cc3)c2)cc1 | active: 8.2 µM
COc1ccc(C2C(C(=O)Nc3ccc(C)cc3C)=C(C)Nc3nc4ccccc4n32)c(OC)c1 (centres undefined) | inactive
O=C(Nc1ccc(Br)cc1F)N1CCC2(CC1)Oc1ccccc1C(=O)N2Cc1ccccc1F | inconclusive [inhibitor, single point]
CC(=O)C[C@H](O)CC(=O)[C@H]1OC(=O)[C@@H](C)C/C=C\Cc2ccccc21 | inactive
CCN(c1ccccc1)c1nnc(NC(=O)Nc2ccc(Br)cc2F)s1 | inconclusive [inhibitor, partial curve]
COc1ccc(-c2csc(NC(=O)CSc3nnc(Nc4ccccc4C)s3)n2)cc1 | active: 6.51 µM
